Results on 1 molecule are retold here after article PMC7855269 (FASEB journal : official publication of the Federation of …, 2020).

This test has as its target T1, GST-His-S-Stx17ΔC (Stx17 1–228) (UniProt P56962 1-228).
T1 sequence (looked up): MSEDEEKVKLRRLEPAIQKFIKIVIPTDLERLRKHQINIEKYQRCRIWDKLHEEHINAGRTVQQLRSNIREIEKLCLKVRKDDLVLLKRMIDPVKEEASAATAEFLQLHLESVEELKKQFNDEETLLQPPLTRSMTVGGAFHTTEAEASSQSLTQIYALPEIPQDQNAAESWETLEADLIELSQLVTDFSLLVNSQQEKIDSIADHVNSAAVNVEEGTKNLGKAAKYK
Put plainly: pull-down.

B1: FLAG-WT CFTR (cystic fibrosis transmembrane conductance regulator) (natural protein)
chain: not shown
Usually EC50 stands for the concentration needed to bring the measured effect to its halfway point. Lower therefore signals an effect from little substance. In turn, B1 gave an EC50 of 0.6 µM.
